Reference: the RNAGym collection of RNA variant scans (doi:10.7554/elife.90254)
Read counts are not given, so values of variants with three or more changes are uncertain.

B1: LINE1-mini (parent)
chain: GGCAGAGCUCAACACAGCGUGGCAAAGUGGCUGUGGCUAGACUGCC

Variants of: B1
Experiment: self-cleavage, relative activity (ratio to wild type); higher = more cleavage; in vitro, sequencing; the parent is a self-cleaving ribozyme

Variant	self-cleavage
A16C C18G U28A	0.09
G2C G5U A12U C13A C18A G33U C37U G40U C45G	0.01
C3G G17U C42U	0.29
A6C G7C A14C G35U	0.06
C8A A12C C31U	0.01
G5C G7U C23U G40C	0.41
C3U G5C C10A C15A G30U G36C U43A	0.01
C10A G29U G30A C42U	0.05
A6U C31G G36C	0.05
G19U U28G G40U	0.01
A12C A16C G35U	0.01
A4U A39G C46G	0.03
G1A G36C C42U	0.07
C37G G44C C45U	0.02
C3U C10A A26C A41G G44A	0.01
C13U C15A A24C	0.03
C3G G22A A41G	0.01
C3U C8G A12C	0.04
G5U C10A C13A A14U C23G G30U	0.06
C8A G27U U32A G40U C46G	0.09
A4U C18U G19A C23G A26U	0.12
G19C C23U A25G G33C G35C	0.03
A4U G7C U20G G22A	0.02
A11U C23U U28C C42U	0.02

Variant	self-cleavage
G17U U32A G44A	0.03
G17A G21A C23G G36C	0.04
G1U C10A C31G	0.02
A12C C15U G21U C23U U34A G36C A41C	0.01
C10U A11U G35C G40U	0.03
A6U A12G A14U	0.08
A16U A24C G33A C37A	0.05
C8A A12U A25G U28C	0.18
A4U C10G G17C G19A U20G G35U C42U	0.01
G5A C10G G33U G44U	0.04
G19C G29U C31U A41G	0.01
G2A A6G G36A	0.37
C3G C18G G19A C23A	0.04
G1A A16G U43G	0.03
C15U A16U U34G A41G	0.07
C8A A11C C37A	0.01
A11C G17C A25G U38C	0.02
A14G C15U C45A	0.05
G5A A12C G19C G27C	0.01
A11C G22A G44A	0.02
G5A C18A G29U G36C	0.03
C15G G33A G36U C37A C46U	0.01
G7U U32C G40A	0.06
G7A C15G C23U U34C	0.15

Variant	self-cleavage
C8U U34A G44A	0.12
C10A G36C C42A	0
A16C A26C G29C C31A U32C U43C	0.09
G1A A11G C23G	0.05
C10G G21U A39C C45U	0.03
G2U G19C G29U G30U U34A A39G	0.01
A4G A24G C45U	0.09
A25C G33A U34A	0.04
G7A C8U U28C	0.14
G1C U9C G36U C46U	0.04
A14G G30C G33A G35A	0.13
C8A G29U G36U A41U	0.05
U9C C13U G19U U28A	0.01
G1A U9A A12U A24U G44U	0.37
G2U A6G U28C C31G	0.02
A6C C15A U38G C42A U43C C46A	0.02
U9A A16U G21U	0
C10A U28C U34C	0.07
G7C A11G C13A A26G G36C	0.01
C18A G29C A39U	0.05
G17A G21U C31G	0.05
C15A G21A A26G	0.08
G21A A24G G44C	0.46
G21A G22U A26U U43G G44U	0.24

Variant	self-cleavage
G1A G2U C37U	0.02
C8A G21U G36U C46A	0.14
G1U G19U C23U G33U	0.03
G5C C8U C42G	0.23
C15A G22U C23U G36C C42A	0.07
U28C G40U C42U	0.16
C3G U20G G29U	0.16
G2U A4U C10A A12C U20A G21U C37A	0
G21U G22A U34C G36U	0.19
C15A G17C U28G	0
G5A C8A A14G C23G G36U C46U	0.22
A4C A14U G40A	0.24
A16U C31G G40U C45U	0.03
C3A G5U C10A A14C A24U C42G	0.04
U9G C13A G44U	0.24
A14U C15U G17A	0
C3U A6G A11U U32C C42G	0
A11C G29A A39G	0
A6C C18A C31A U38A	0.04
G17U U38A A41G	0.11
G21U G22C A26G U38A C42G	0.03
G7U A14U U32A G33U	0.01
G19U A24G U28G U38C	0.28
C8A C18G U20G	0.1

Variant	self-cleavage
G5C A14U C15A G29U G36A	0.03
G1C C3G G30A	0.22
C23U U28C G40U	0.03
C15G G17C G19U C23A	0.04
C8A G22A G35A	0.44
G1U G2A C18U U34G A39U C42A	0.02
C8G C18U U43G C46U	0.13
C10A A24G G36U	0.02
C8U G21C C37G	0.03
G5U A11G C15A C23A G33C	0
A25G A26C G33A	0.04
C23U G33C C45U	0.03
G5C A11G G27C C37G G40U C45G	0.01
G7C A11C A39G	0.01
G1U A6U C10U U34C C45G	0.02
A4U G19A A26U G30A C31G C45U	0.01
G1U A16U G17U C42U	0.01
A11C C15A U38C	0
C8A U9A G19A C23A	0.09
C3G A6G A24G	0.02
G7C C13A U43A	0.04
A16U G27C C46U	0.82
G22U U38G U43A	0.03
G2A G22U A25G G27A C31U C42G	0

Variant	self-cleavage
G5C A24G C46G	0.03
C15G A41C C46U	0.03
C8A A12G C13A C23U G36U	0.06
G7U A12G G30C	0
G1A G2U A4C C18A A39G	0.01
G5C C10A G27A	0
C18G G29C C45A	0.29
G5C G7A C23U A39G	0.1
C18A G19A G21A G22U A24U U34A	0.04
G5U U20A A25G	0.01
C18A G29U C31U U43C	0.02
G7A G27A U28G G33A	0.07
A14G U28C G44A	0.04
A14G C18U C37G A41C	0.02
G5U G27U U32G A41U	0.08
G2C G7A A11U C15A A16U G19C G36C G40A	0.02
A6G C13U G30U	0.05
G2C A6C C15U C23U	0.2
G7A C15U U20A U34G	0.52
C15G A16U C18A G19U U34C C37U U43A	0.01
G1U A6U A14U	0.18
U20C G29C U32G	0.55
C3G C10G C23G	0.03
G7U C8A U20C	0.05

Variant	self-cleavage
A25U G29A G30C A41U	1.07
G5C C10G C13A G22U	0.03
A6C G17U A39G	0.02
C10U C31G G40C	0.01
C15A A25U G29U	0.11
U9G A12C G17C G30U U34C U43A	0
G17U G19A U38A	0.99
A4U G7U C23A G30U	0.4
G22U G30A G33A	0.48
G7A C10U A12G G33C	0.01
A4G A6G U34C C42A U43A	0.12
G7U G29A G44A	0.4
C18G G36U C45U	0
G33A G36A A41U C45G	0.05
C23A G30U G33C G40A	0.06
C8A G19U U20C G30A C31A	0.24
G30A U38C G40C	0.05
G2A C8U C46A	0.16
A6C C23A C31A	0.03
A11C C13G U20C G22U U34A	0.02
A11C U32C U34A A41U	0.01
C3A C15G U34G	0.05
C10A G30A C45G C46U	0.05
